# Measurements published in PubChem BioAssay AID1477 (National Center for Advancing Translational Sciences (NCATS), 2009).
# The whole screen tested about 230,000 compounds, of which fewer than 10 were called active. Inconclusive means that the source gave no clear call. Such entries were picked first, then a sample of the others. Calls follow the shape of the dose curve; as a rule, active = well fitted curve in the direction sought with a large enough effect; inconclusive = small, poorly fitted or top-dose-only effect, or effect the other way, or another doubt; inactive = no such curve, though single readings can be large or run the other way. No potency is given beside an inconclusive call; the fits are too rough.
# Target: Runt-related transcription factor 1 (Homo sapiens) + Core-binding factor subunit beta (Homo sapiens) (UniProt Q01196+Q13951)
# UniProt Q01196, sequence (Q01196 whole entry, looked up): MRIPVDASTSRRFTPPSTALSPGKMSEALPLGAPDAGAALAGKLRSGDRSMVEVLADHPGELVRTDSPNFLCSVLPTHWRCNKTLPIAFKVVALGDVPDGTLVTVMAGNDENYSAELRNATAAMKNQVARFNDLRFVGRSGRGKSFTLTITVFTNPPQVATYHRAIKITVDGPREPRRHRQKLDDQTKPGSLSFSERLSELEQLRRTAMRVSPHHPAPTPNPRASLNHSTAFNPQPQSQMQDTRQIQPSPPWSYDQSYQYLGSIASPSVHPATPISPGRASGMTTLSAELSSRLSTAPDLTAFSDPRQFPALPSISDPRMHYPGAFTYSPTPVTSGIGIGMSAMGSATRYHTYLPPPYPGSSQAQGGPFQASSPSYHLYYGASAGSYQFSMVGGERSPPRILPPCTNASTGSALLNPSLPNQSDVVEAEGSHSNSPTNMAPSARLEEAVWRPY
# UniProt Q01196, sequence (Q13951 whole entry, looked up): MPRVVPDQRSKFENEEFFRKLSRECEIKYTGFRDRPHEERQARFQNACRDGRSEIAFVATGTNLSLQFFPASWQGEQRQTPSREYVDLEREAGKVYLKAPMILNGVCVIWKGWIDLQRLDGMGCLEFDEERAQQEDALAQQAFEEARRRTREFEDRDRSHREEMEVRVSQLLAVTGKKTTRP
# Assay: qHTS Assay for Compounds Blocking the Interaction Between CBF-beta and RUNX1 for the Treatment of Acute Myeloid Leukemia
# Conditions: AlphaScreen CBFb-His/RUNX1-biotin binding, biochemical; series mostly up to 59.8 µM
# From the text: NIH Chemical Genomics Center [NCGC]
# NIH Molecular Libraries Probe Production centers Network [MLPCN]
# Assay Submitter (PI): Paul Liu
# Core Binding Factor (CBF) abnormalities are associated with 20-25% of all acute myeloid leukemias (AML), of which 5-10% are further sub classified as acute myelomonocytic leukemia with eosinophilia, also known as M4Eo in the FAB classification scheme. This subtype of leukemia is usually associated with chromosome 16 inversion (p13:q22). Chromosome 16 inversion results in formation of the fusion oncogene CBFB-MYH11, which encodes the fusion protein CBF-beta-SMMHC.
# It has been hypothesized that the interference of CBF-beta and RUNX1 binding could have therapeutic implications for patients with CBF mediated leukemias. We developed a CBF-beta and RUNX1 binding assay in AlphaScreenTM format and optimized it for high throughput screening to search for inhibitors. The goal of this project is to screen MLPCN's compound collection (MLSMR) for identifying the inhibitors of the interaction between CBF-beta and RUNX1 proteins as research probes. If these probes work well in the animal models, the ultimate goal of this project is to development a new drug treatment for this disease.
# This assay can not be used to assess how apparent inhibitors interfere with protein binding, and whether inhibitors specifically bind to either protein. Disruption of this protein-protein interaction, through any mechanism, is the intended target activity.
# NCGC Assay Protocol Summary:
# Step, Parameter, Description
# (1) Reagent, 3 uL CBFb-His/RUNX1-biotin mix incubated together for 20 minutes at room temperature (30 nM each)
# (2) Compound or control, 23 nL compound stock solution
# (3) Incubation, 15 minutes at Room temperature
# (4) Reagent, 1 uL 50 ng each of beads (Nickel beads and streptavidin beads)
# (5) Incubation, 90 minutes at Room temperature
# (6) Detection, Excitation=365 nm Emission=440 nm, Envision reader in AlphaScreenTM mode
# Keywords: MLSMR, MLPCN, NIH Roadmap, qHTS, NCGC, Core binding factor, CBF, CBF-beta, Acute myeloid leukemia
row,SMILES,Potency
1,CC(=O)C[C@@H](c1ccccc1)c1c(O)c2ccccc2oc1=O,inactive
2,CSc1ccc(/C=N/n2c(Cc3ccc(Br)cc3)n[nH]c2=S)cc1,"inconclusive [inhibitor, single point]"
3,CCO[C@@H]1OC(C(=O)NCc2nc3ccccc3[nH]2)=C[C@H](c2ccccc2)[C@H]1CCCO,"inconclusive [activator, single point]"
4,COc1cccc(C(=O)Nc2nc(-c3ccccc3)c(-c3ccccc3)o2)c1,"inconclusive [inhibitor, single point]"
5,O=C(Nc1nnc(-c2ccccn2)o1)c1cccc(Br)c1,"inconclusive [inhibitor, single point]"
6,OC[C@H]1NC[C@@H](O)[C@@H]1O,"inconclusive [inhibitor, single point]"
7,Cc1ccc(C(=O)N/N=C/c2cccc(OC(=O)/C=C/c3ccco3)c2)cn1,"inconclusive [inhibitor, partial curve]"
8,O=C(CN1CCN(c2ccccc2O)CC1)Nc1cc([N+](=O)[O-])ccc1Cl,inactive
9,O=C(NCc1ccccc1Cl)c1ccccc1Oc1ccccc1,"inconclusive [activator, single point]"
10,CC(Sc1ccc2c(c1)OCCO2)C(=O)Nc1ccc(N2CCOCC2)cc1 (stereo unspecified),"inconclusive [activator, full curve, poor fit]"
11,O=C(Nc1ccccc1)c1cnc2ccccc2n1,inactive
12,Cc1nc([N+](=O)[O-])c(Sc2nc3ccc([N+](=O)[O-])cc3[nH]2)n1Cc1ccccc1,inactive
13,Cc1cccc(C(=O)c2cnc3ccccc3c2-c2ccccc2)c1,"inconclusive [activator, partial curve]"
14,Cc1cc(C(=O)N/N=C/c2cccc([N+](=O)[O-])c2O)n[nH]1,"inconclusive [inhibitor, partial curve]"
15,O=C(c1ccccc1F)N1CCN(c2ccc([N+](=O)[O-])cc2-n2cccc2)CC1,"inconclusive [inhibitor, single point]"
16,Cc1noc(NS(=O)(=O)c2ccc(NC(=O)CSc3nc4c(cc3C#N)CCC4)cc2)c1C,inactive
17,CCCC1Cc2nc(N3CCCCC3)c(C#N)cc2CO1 (stereo unspecified),"inconclusive [activator, single point]"
18,CCc1cccc(N=c2c([N+](=O)[O-])nn(-c3ccc4c(c3)OCCO4)n2O)c1,"inconclusive [inhibitor, single point]"
19,COc1cc(NS(=O)(=O)c2ccc(NC(=S)NC(=O)c3ccco3)cc2)nc(OC)n1,"inconclusive [inhibitor, single point]"
20,C=CCNC(=O)c1onc(CSc2cc(C)cc(C)c2)c1C(=O)NCC=C,"inconclusive [activator, partial curve]"
21,Cc1cc([N+](=O)[O-])c2c(c1C)C1C=CCC1C(c1ccccn1)N2 (stereo unspecified),"inconclusive [inhibitor, partial curve]"

row,SMILES,Potency
1,O=[N+]([O-])c1cccc(/C=N/N2CCN(Cc3ccc(Cl)cc3)CC2)c1,"inconclusive [inhibitor, single point]"
2,CC(C)[C@H]1C(=O)N2CCC[C@H]2[C@]2(O)O[C@](NC(=O)[C@@H]3C=C4c5cccc6[nH]cc(c56)C[C@H]4N(C)C3)(C(C)C)C(=O)N12,"inconclusive [inhibitor, partial curve]"
3,CCOc1ccc(/C=C2/SC(=S)N(C(C(=O)O)c3ccccc3)C2=O)cc1OCC (stereo unspecified),"inconclusive [inhibitor, partial curve]"
4,Fc1ccc(Nc2nc(Oc3ccc4c(c3)OCO4)nc(N3CCOCC3)n2)c(F)c1,"inconclusive [inhibitor, single point]"
5,O=C(Nc1nccs1)c1cc2c(s1)CCCCC2,inactive
6,CCOc1cccc(C2NC(=S)NC(C)=C2C(=O)Nc2ccccc2)c1 (stereo unspecified),inactive
7,COc1cc(OC)c2c(C)cc(=O)oc2c1C(CCN1CCN(c2ccccc2)CC1)c1ccc2c(c1)OCO2 (stereo unspecified),"inconclusive [inhibitor, partial curve]"
8,Cc1cccc(C)c1OC(=O)C(c1ccccc1)c1ccccc1,"inconclusive [activator, single point]"
9,CC(Sc1nnc(Nc2ccccc2)s1)C(=O)Nc1nc(-c2ccccc2)cs1 (stereo unspecified),inactive
10,C(=N\NC1=Nc2cccc3cccc1c23)/c1cccnc1,"inconclusive [inhibitor, single point]"
11,O=C(N/N=C/c1cnc(N2CCCCC2)s1)c1ccc(Cl)cc1,"inconclusive [inhibitor, single point]"
12,COC(=O)[C@@H](O)CC[C@@H](C)Cc1c(OC)c(OC)c(C)c(OC)c1OC,inactive
13,O=[N+]([O-])c1ccc(C2CCCC/C2=N\OCc2cccc(F)c2)c([N+](=O)[O-])c1 (stereo unspecified),"inconclusive [inhibitor, partial curve]"
14,CCOC(=O)Cc1nnc(NC(=O)c2ccccc2OCC)s1,inactive
15,CC1Cc2ccccc2N1C(=O)c1ccc(N2CCCCC2)c([N+](=O)[O-])c1 (stereo unspecified),"inconclusive [inhibitor, partial curve]"
16,Cc1cc(C(=O)N/N=C/c2ccccn2)n[nH]1,"inconclusive [inhibitor, partial curve]"
17,COc1ccc(C2(c3ccc(O)cc3O)CC(c3ccccc3Cl)NC(=S)N2)cc1 (stereo unspecified),"inconclusive [inhibitor, single point]"
18,O=C(c1cc(-c2ccc3c(c2)OCO3)on1)N1CCN(c2ccccc2)CC1,inactive
19,Cc1ccccc1C(=O)N1CCN(c2ccc([N+](=O)[O-])c(NCc3ccco3)c2)CC1,"inconclusive [inhibitor, single point]"
20,O=C(NNc1ccc(C(F)(F)F)cc1[N+](=O)[O-])c1ccc(NS(=O)(=O)c2ccc(F)cc2)cc1,"inconclusive [inhibitor, partial curve]"
